Reference: PubChem BioAssay AID1347165 (National Center for Advancing Translational Sciences (NCATS), 2019)
Screen size: about 220,000 compounds; about 5,700 (2.6%) were called active. This list was built around the results that the source calls inconclusive (neither active nor inactive); the mix of calls is not that of the screen. Calls follow the shape of the dose curve; as a rule, active = well fitted inhibition curve with a large enough effect; inconclusive = small, poorly fitted or top-dose-only effect; inactive = no such curve, though single readings can be large or run the other way. A potency beside an inconclusive call is a rough fit, not a confirmed value.

target: Lysine-specific demethylase 5B (Homo sapiens) (UniProt Q9UGL1); assay: Primary screen for KDM5B Histone Demethylases FDH-coupled qHTS; details: FDH-coupled NADH fluorescence (FDH is formaldehyde dehydrogenase); activity change, negative = inhibition: at 57.7 µM (top of the series) unless noted; also: nearly all actives have a fitted effect of over 70% in size; as to activity change, negative = inhibition: 0% is about no effect
UniProt Q9UGL1, sequence (Q9UGL1 whole entry, looked up, the tested form may be a part): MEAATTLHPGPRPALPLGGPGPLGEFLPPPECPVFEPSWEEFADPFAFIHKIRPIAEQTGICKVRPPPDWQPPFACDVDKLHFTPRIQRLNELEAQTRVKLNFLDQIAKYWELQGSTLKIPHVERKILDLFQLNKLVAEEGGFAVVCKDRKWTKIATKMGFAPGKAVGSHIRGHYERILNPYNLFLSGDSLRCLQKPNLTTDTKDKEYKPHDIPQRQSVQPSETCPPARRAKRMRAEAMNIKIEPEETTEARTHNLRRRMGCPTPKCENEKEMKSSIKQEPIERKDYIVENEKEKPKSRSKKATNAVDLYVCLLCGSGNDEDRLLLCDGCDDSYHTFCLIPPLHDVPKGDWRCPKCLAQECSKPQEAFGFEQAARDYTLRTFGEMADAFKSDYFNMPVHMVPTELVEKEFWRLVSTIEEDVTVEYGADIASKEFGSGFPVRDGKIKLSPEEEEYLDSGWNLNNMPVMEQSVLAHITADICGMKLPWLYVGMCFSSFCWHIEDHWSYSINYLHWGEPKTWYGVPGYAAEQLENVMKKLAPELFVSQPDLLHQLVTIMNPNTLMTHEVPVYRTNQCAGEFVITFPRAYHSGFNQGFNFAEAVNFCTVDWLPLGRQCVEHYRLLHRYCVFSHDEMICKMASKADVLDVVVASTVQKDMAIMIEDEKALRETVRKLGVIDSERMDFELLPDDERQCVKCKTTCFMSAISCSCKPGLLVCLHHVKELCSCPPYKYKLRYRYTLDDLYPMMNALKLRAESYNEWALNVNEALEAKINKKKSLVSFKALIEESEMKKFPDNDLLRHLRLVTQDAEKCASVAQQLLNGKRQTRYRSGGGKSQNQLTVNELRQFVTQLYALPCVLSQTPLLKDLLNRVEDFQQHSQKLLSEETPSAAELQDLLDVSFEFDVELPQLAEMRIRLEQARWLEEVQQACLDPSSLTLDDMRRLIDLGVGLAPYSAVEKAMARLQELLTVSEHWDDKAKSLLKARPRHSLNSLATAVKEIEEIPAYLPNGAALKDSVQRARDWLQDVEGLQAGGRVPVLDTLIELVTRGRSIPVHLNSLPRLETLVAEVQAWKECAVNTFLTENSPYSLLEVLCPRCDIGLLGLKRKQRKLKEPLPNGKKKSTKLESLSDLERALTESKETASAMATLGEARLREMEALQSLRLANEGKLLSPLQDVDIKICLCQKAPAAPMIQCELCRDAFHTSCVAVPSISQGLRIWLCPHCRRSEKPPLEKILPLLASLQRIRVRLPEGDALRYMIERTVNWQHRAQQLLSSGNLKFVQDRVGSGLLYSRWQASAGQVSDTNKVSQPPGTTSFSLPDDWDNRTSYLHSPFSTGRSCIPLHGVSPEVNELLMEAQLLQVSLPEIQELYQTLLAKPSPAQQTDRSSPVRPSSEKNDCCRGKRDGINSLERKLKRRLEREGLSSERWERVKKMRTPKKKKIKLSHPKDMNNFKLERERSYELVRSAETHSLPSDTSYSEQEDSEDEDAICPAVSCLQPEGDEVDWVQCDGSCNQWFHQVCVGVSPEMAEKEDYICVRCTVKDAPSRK
How it was run: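 Inhibition is measured as reduced NADH fluorescence generation from FDH coupling to formaldehyde release. Truncated KDM5BΔAP at 200 nM final acts on H3K4me3 peptide (12.5 µM in substrate mix) in pH 7.5 HEPES buffer with Tween-20, 30 min, room temperature.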
Potency is read from the fitted curve at half-maximal effect; tags tell the direction and shape of the fitted curve.

| Compound | Potency | activity change, negative = inhibition |
| --- | --- | --- |
| COc1ccc(C(=O)N2CCC3(CC2)N=C(c2ccc(Cl)cc2)NO3)cc1F | inconclusive: 22.4 µM [inhibitor, single point] |  |
| CCOc1ccccc1NC(=O)COC(=O)c1nn(C)c(=O)c2ccccc12 | inactive |  |
| COc1ccc(OC)c([S+](=O)([O-])c2nnn3c2nc(N2CCCCC2)c2ccccc23)c1 | inconclusive: 89.1 µM [inhibitor, partial curve, poor fit] |  |
| Cc1cccc(OCC(=O)N[C@@H]2CN(c3ncccn3)C[C@H]2CN(C)C)c1 | active: 22.4 µM |  |
| COCCNC(=O)C1c2ccccc2C(=O)N(C2CCCC2)C12CCCC2 (stereo not drawn) | inconclusive: 25.1 µM [inhibitor, partial curve, poor fit] |  |
| COc1ccc(NS(=O)(=O)c2cccc(C(=O)Nc3ccc4oc(C)nc4c3)c2)cc1 | inactive |  |
| CCOc1ccccc1NC(=O)c1cc2ccc3cccnc3c2[nH]1 | inconclusive: 28.2 µM [inhibitor, partial curve, poor fit] |  |
| COC(=O)c1ccc2c(c1)N(C)S(=O)(=O)c1cnc(SCC(=O)C(C)(C)C)nc1-2 | inconclusive: 10 µM [inhibitor, partial curve, poor fit] |  |
| Cc1cccc(-c2nnc(SCC(=O)NC3CCCCC3)o2)c1 | inconclusive: 1.78 µM [inhibitor, partial curve, poor fit] |  |
| COc1ccccc1C(=O)N1CCC(N2CCN(c3ccccc3)CC2)CC1 | inconclusive: 2.82 µM [inhibitor, full curve, poor fit] |  |
| Cc1ccc(OCCCCCCN2CCNCC2)cc1 | inconclusive: 14.1 µM [inhibitor, partial curve, poor fit] |  |
| CC(=O)Nc1ccc2oc(-c3cncc(Br)c3)nc2c1 | inconclusive: 5.01 µM [inhibitor, full curve, poor fit] |  |
| Cc1ccc(CNC(=O)c2cnn3c(C)c(Cc4c(F)cccc4Cl)c(C)nc23)cc1 |  | inconclusive: -33.7% [inhibitor] |
| COc1cc(C(F)(F)F)nc2ccc(C#CCOC(=O)Nc3ccccc3)cc12 | inconclusive: 25.1 µM [inhibitor, single point] |  |
| COc1ccc(C(=O)NC2CCN(c3cc(-c4ccc(F)cc4)[nH]n3)CC2)cc1F | inactive |  |
| Cc1ccc2oc3c(c(=O)c2c1)C(c1cccc(O)c1)N(CCCN1CCOCC1)C3=O (stereo not drawn) | inconclusive: 31.6 µM [inhibitor, single point] |  |
| N#Cc1cccc(C(=O)NCCc2cccnc2)c1 | inactive |  |
| Cc1ccc(/C=C/C(=O)Nc2ccc(S(=O)(=O)Nc3cc(C)nc(C)n3)cc2)cc1 | inconclusive: 31.6 µM [inhibitor, single point] |  |
| CNC(=O)CCn1ncc2cc(OCc3ccccc3-c3ccc(F)cc3F)ccc21 | inconclusive: 35.5 µM [inhibitor, partial curve, poor fit] |  |
| Cn1nc(C(=O)N2C[C@@H](Oc3cccnc3)C[C@H]2C(=O)NC2CC2)c2ccccc21 | inconclusive: 28.2 µM [inhibitor, partial curve, poor fit] |  |
| CCCCn1c(SCC(=O)NC(C)(C)C)nc2ccccc2c1=O | inactive |  |
| Cc1ccc(C(=O)N2CCCC(n3cc(-c4nc(C(C)C)no4)nn3)C2)s1 (stereo not drawn) | inactive |  |
| C=CCn1c(-c2cc(-c3ccccc3)sc2N)n[nH]c1=S | inconclusive: 14.1 µM [inhibitor, partial curve, poor fit] |  |

| Compound | Potency | activity change, negative = inhibition |
| --- | --- | --- |
| CCOC(=O)Cc1ccc(NC(=O)N2CCC(CN3CCC(C)CC3)CC2)cc1 | inactive |  |
| COc1ccc(N(C(=O)c2ccc(C)cc2)S(=O)(=O)c2ccc(Cl)cc2)cc1 | inconclusive: 14.1 µM [inhibitor, partial curve, poor fit] |  |
| COc1cc(F)ccc1-c1cc(C(=O)NCc2cnn(C)c2)c2c(c1)N(C)CCO2 | active: 39.8 µM |  |
| Nc1ccsc1C(=O)N[C@@H]1COCC[C@@H]1OCc1cscn1 | inconclusive: 10 µM [inhibitor, partial curve] |  |
| O=S(=O)(c1ccc2oc(Nc3ccc(F)cc3)nc2c1)N1CCCCC1 | inactive |  |
| C[C@@H](NC(=O)Nc1ccccc1)c1onc(-c2ccc(F)cc2)c1C(=O)O | inconclusive: 28.2 µM [inhibitor, single point] |  |
| O=c1[nH]c(N2CCCCC2)nc2nccc(-c3ccsc3)c12 | inconclusive: 10 µM [inhibitor, partial curve, poor fit] |  |
| O=C(O)CCN1C(=O)c2ccc(NC(=O)C(c3ccccc3)c3ccccc3)cc2C1=O | inconclusive: 31.6 µM [inhibitor, partial curve, poor fit] |  |
| Cc1nc(N2CCC(N[C@H]3Cc4ccccc4[C@@H]3N)CC2)c2ccsc2n1 | inconclusive: 11.2 µM [inhibitor, partial curve] |  |
| CCC(=O)N1Cc2ccccc2CC2(CCCCN2CC)C1 (stereo not drawn) | active: 100 µM |  |
| O=C1c2oc3ccccc3c(=O)c2C(c2cccc(O)c2)N1Cc1ccc(F)cc1 (stereo not drawn) | inactive |  |
| CC(C)Cc1cc(C(=O)N2CCC3(CC2)Nc2ccccc2NC3=O)n[nH]1 | inconclusive: 20 µM [inhibitor, partial curve, poor fit] |  |
| COc1ccc(Cl)cc1NC(=O)CCc1ncc(-c2ccc(F)cc2)o1 | inactive |  |
| O=C(c1cc(-c2ccc(Cl)cc2)on1)N(Cc1ccc(F)cc1)Cc1ccco1 | inconclusive: 1.41 µM [inhibitor, full curve, poor fit] |  |
| Cc1ccccc1Nc1c(-c2ccccc2O)nc2sccn12 | inconclusive: 28.2 µM [inhibitor, partial curve, poor fit] |  |
| CN(C)C(=O)N1CCC2(CC1)CN(C(=O)CCC(=O)O)Cc1ccccc1O2 | inactive |  |
| Cc1ccccc1NC1C2CC3CC(C2)CC1C3 (stereo not drawn) | inactive |  |
| Cc1ncccc1C(=O)N1CCC2(CC1)CC(N(Cc1ccc(F)cc1)C1CC1)CCO2 (stereo not drawn) | inactive |  |
| O=C(Nc1ccc(NC(=O)c2ccccc2Cl)cc1)c1cccnc1 | inconclusive: 39.8 µM [inhibitor, single point] |  |
| COc1ccc(Cc2ncc3c(n2)CN(C(=O)c2ccc(F)c(C)c2)C3)cc1 | inactive |  |
| CN(c1ccccc1)c1cc(=O)c2ccnc(Nc3cccc([S+](C)(=O)[O-])c3)c2o1 | inconclusive: 22.4 µM [inhibitor, partial curve, poor fit] |  |
| O=C(c1cn(-c2ccccc2)nc1-c1cccnc1)N1CCN(c2ccc(O)cc2)CC1 | inconclusive: 25.1 µM [inhibitor, single point] |  |
| Cc1cccc(Nc2nc(C(=O)N3CCc4ccccc4C3)cs2)c1 | inactive |  |

| Compound | Potency | activity change, negative = inhibition |
| --- | --- | --- |
| CCOc1cccc(CC(=O)N2CCc3c([nH]c4ccccc34)C2c2ccc(OC)cc2)c1OCC (stereo not drawn) | inconclusive: 25.1 µM [inhibitor, single point] |  |
| O=C(Nc1nnc(-c2cccnc2)s1)C(=O)c1c[nH]c2ccccc12 | inactive |  |
| CCCCC(Sc1nnc(C)n1-c1ccccc1C)C(=O)Nc1cc(C)on1 (stereo not drawn) | inactive |  |
| COc1ccc(-c2nnc([C@H]3CCN(Cc4ccccc4Cl)C3)o2)cc1 | inconclusive: 50.1 µM [inhibitor, single point] |  |
| CC(=O)c1ccc(NC(=O)c2nc(-c3ccccc3)oc2C)cc1 | inconclusive: 25.1 µM [inhibitor, single point] |  |
| O=C(N[C@@H]1CN(c2ncccn2)C[C@H]1CO)c1ccoc1 | active: 12.6 µM |  |
| Cc1ccc(CC(=O)N2CCN(C(=O)C3CCCO3)CC2)cc1 (stereo not drawn) | inactive |  |
| O=C(Cn1ccn2nc(-c3ccccc3)c(CO)c2c1=O)Nc1ccc(F)c(F)c1 | inconclusive: 20 µM [inhibitor, partial curve] |  |
| Cc1ccc(-n2c(SCc3nc(-c4ccc(Cl)cc4)no3)nnc2-c2ccncc2)cc1 | inconclusive: 17.8 µM [inhibitor, partial curve, poor fit] |  |
| CCc1ccccc1NC(=O)c1ncoc1-c1ccc(OC)c(OC)c1 | inconclusive: 39.8 µM [inhibitor, single point] |  |
| Cc1ccc(C)c(NC(=O)CN(C)C(=O)c2cccc(S(=O)(=O)NCC3CCCO3)c2)c1 (stereo not drawn) | inactive |  |
| CSc1cccc(Nc2nc(N)c(C(=O)c3ccc(F)cc3)s2)c1 | inconclusive: 35.5 µM [inhibitor, single point] |  |
| O=C(Nc1ccc(Cl)cc1Cl)c1cccn2cncc12 | inactive |  |
| CC(C(=O)Nc1cccc(C#N)c1)n1nnc(-c2ccccc2Cl)n1 (stereo not drawn) | inactive |  |
| CCCc1nn2c(=O)cc(COC(=O)c3ccccc3NC(=O)C3CCCCC3)nc2s1 | inconclusive: 1.41 µM [inhibitor, partial curve, poor fit] |  |
| CCN1c2cc(C(=O)Nc3ccc4c(c3)CCC4)ccc2C(=O)N2CCCCC21 (stereo not drawn) | inconclusive: 28.2 µM [inhibitor, partial curve, poor fit] |  |
| COC(=O)c1c(C)sc(-c2c(-c3ccc(F)cc3)[nH]c3[nH]c(=O)[nH]c(=O)c23)c1O | inconclusive: 1.26 µM [inhibitor, full curve, poor fit] |  |
| c1ccc(CCc2noc(-c3ccc(N4CCCOCC4)nc3)n2)cc1 | inconclusive: 22.4 µM [inhibitor, single point] |  |
| O=C(NCc1ccccn1)c1cc(F)cc(F)c1 | inactive |  |
| CCc1cc(C(=O)N2CCCC2c2ccc(C)cc2)no1 (stereo not drawn) | inactive |  |
| COCCN1C(=O)c2ccccc2C(C(=O)NCc2ccc(OC)cc2)C12CCCC2 (stereo not drawn) | inactive |  |
| CC(C)(C)OC(=O)N1CCC[C@H]1C(=O)N/N=C/c1cccc2nccnc12 | inconclusive: 39.8 µM [inhibitor, single point] |  |
